Experimental data from the supplement of paper PMC9588766.
Counter-ions that a name gives are not always drawn. ± gives the standard deviation of the averaged measurements. In all, about 2,000 compounds were measured (“cell viability relative to DMSO control (compound alone)”: median about 0.98, lowest 2% from about 0.23 on). The list shows a part of the results.

These compounds were tested on PDC-DUC18828 (assay: cell viability relative to DMSO control (compound alone) (fraction); PDC-DUC18828 is a patient-derived cholangiocarcinoma cell line; higher = less growth inhibition). Settings: 1 µM; 72 h.
Method: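 Selleck Bioactive library screen in the patient-derived FGFR2-G3BP2 fusion-positive ICC cell line PDC-DUC18828 (500 cells/well). Each compound was tested at 1 uM alone, in triplicate, for 72 h. Viability was read by CellTiter-Glo and normalised to plate DMSO controls.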
Work on `O=C(CCc1ccc(O)cc1)c1c(O)cc(O)cc1O` [Phloretin] yielded a cell viability of 1.1 ± 0.036. `CC[C@H](C)[C@H](N)C1=N[C@H](C(=O)N[C@@H](CC(C)C)C(=O)N[C@H](CCC(=O)O)C(=O)N[C@H](C(=O)N[C@H]2CCCCNC(=O)[C@H](CC(N)=O)NC(=O)[C@@H](CC(=O)O)NC(=O)[C@H](Cc3cnc[nH]3)NC(=O)[C@@H](Cc3ccccc3)NC(=O)[C@H]([C@@H](C)CC)NC(=O)[C@@H](CCCN)NC2=O)[C@@H](C)CC)CS1` [Bacitracin] gave a cell viability of 1.02 ± 0.016. Compound `CC(S)C(=O)NCC(=O)O` (stereo not given) [Tiopronin] has a cell viability of 1.04 ± 0.026. `CNCc1ccc(-c2cc(-c3nc(-c4ccc(S(=O)(=O)C(C)C)cc4)cnc3N)on2)cc1` showed a cell viability of 0.883 ± 0.08. `CN1CCN(CCCN2c3ccccc3Sc3ccc(C(F)(F)F)cc32)CC1` [Trifluoperazine 2HCl] was tested, and the cell viability was 0.96 ± 0.033. Work on `O=C(NCc1ccccc1)c1csc(Nc2ccncn2)n1` [Thiazovivin] yielded a cell viability of 0.99 ± 0.013. `CNC[C@H](O)c1ccc(O)c(O)c1` [Epinephrine HCl] gave a cell viability of 0.939 ± 0.033. Compound `CNC[C@H](O)c1ccc(O)c(O)c1` [Epinephrine Bitartrate] has a cell viability of 1.02 ± 0.033. `CNC(=O)c1cc(Oc2ccc(NC(=O)Nc3ccc(Cl)c(C(F)(F)F)c3)c(F)c2)ccn1` [Regorafenib (BAY 73-4506)] was tested, and the cell viability was 0.941 ± 0.022. Work on `CC(C)(C)NCC(O)COc1cccc2c1CCC(=O)N2` (stereo not given) [Carteolol HCl] yielded a cell viability of 1 ± 0.051. With `CN(C)CC(=O)Nc1ccc2[nH]c(=O)c3ccccc3c2c1` the cell viability was 1.04 ± 0.028. With `O=C(O)c1cc(/N=N/c2ccc(O)c(C(=O)O)c2)ccc1O` [Olsalazine Sodium] the cell viability was 1.05 ± 0.015. In the case of `O=C(Nc1ccccc1-c1cn2c(CN3CCNCC3)csc2n1)c1cnc2ccccc2n1`, the cell viability is reported as 0.808 ± 0.0086. `O=C(C1CCCCC1)N1CC(=O)N2CCc3ccccc3C2C1` (stereo not given) [Praziquantel] was tested, and the cell viability was 1.03 ± 0.021. Compound `C[C@@H]1CCO[C@H]2Cn3cc(C(=O)NCc4ccc(F)cc4F)c(=O)c(O)c3C(=O)N12` has a cell viability of 1.09 ± 0.047. `C[C@]1(O)C[C@@H](c2nc(-c3ccc4ccc(-c5ccccc5)nc4c3)c3c(N)nccn32)C1` [OSI-906 (Linsitinib)] showed a cell viability of 0.868 ± 0.053. `CC(C)C[C@H](NC(=O)[C@@H](NC(=O)c1cccc(-c2ccccc2)n1)[C@@H](C)O)B(O)O` gave a cell viability of 0.0155 ± 0.0027. With `CNC(=O)c1cc(Oc2ccc(NC(=O)Nc3cc(C(C)(C)C)nn3-c3ccc4ncccc4c3)c(F)c2)ccn1` [DCC-2036 (Rebastinib)] the cell viability was 0.952 ± 0.034. `OC[C@H]1O[C@H](O[C@]2(CCl)O[C@H](CCl)[C@@H](O)[C@@H]2O)[C@H](O)[C@@H](O)[C@H]1Cl` [Sucralose] gave a cell viability of 1.01 ± 0.017. Work on `COc1ccc2c(c1)c(CC(=O)O)c(C)n2C(=O)c1ccc(Cl)cc1` [Indomethacin] yielded a cell viability of 1.02 ± 0.029.
